Molecules are shown by their SMILES. Screen size: about 48,000 compounds; about 550 (1.1%) were called active. Inconclusive results (about 4%) are left out. No stated cut-off is given here; in the data, active means potency below about 15 µM; inconclusive means mostly about 16 µM to 33 µM; inactive means weaker than that. Some of the results follow.
Potency means the concentration at half of the fitted maximal effect.

Sequence of UniProt P04062 (P04062 whole entry, looked up): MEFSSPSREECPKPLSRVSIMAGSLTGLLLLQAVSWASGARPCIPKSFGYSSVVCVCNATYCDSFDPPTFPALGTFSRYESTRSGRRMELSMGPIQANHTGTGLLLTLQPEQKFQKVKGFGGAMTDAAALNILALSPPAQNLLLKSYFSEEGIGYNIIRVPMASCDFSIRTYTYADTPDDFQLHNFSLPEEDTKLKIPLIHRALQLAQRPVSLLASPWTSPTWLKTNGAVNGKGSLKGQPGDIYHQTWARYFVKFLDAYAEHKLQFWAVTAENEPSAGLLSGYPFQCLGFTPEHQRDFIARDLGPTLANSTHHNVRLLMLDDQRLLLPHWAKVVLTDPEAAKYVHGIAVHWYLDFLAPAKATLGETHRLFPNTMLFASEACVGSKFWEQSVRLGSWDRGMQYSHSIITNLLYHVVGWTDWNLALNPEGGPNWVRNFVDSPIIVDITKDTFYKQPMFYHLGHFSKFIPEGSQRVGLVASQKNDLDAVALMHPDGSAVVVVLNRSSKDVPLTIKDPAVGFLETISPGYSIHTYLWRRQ

This experiment addresses Lysosomal acid glucosylceramidase (Homo sapiens) (UniProt P04062). Nature of the experiment: Glucocerebrosidase.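 Further: the screen sought inhibitors.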 As to conditions: purified enzyme, resorufin glucoside fluorescence (screen aimed at inhibitors), 20 min. A digest of the protocol:
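Wild-type enzyme at 0.2 nM final in 50mM citric acid/KH2PO4, 10mM sodium taurocholate, 0.01% tween-20, pH 5.9, with resorufin beta-D-glucopyranoside at 30 uM final. Compounds titrated, 20 min at RT, red fluorescence read; AC50 from titration.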
Consider `CC(=O)c1cccc(NC(=O)NCc2ccccn2)c1`, for which the Potency was inactive: > 76.9 µM. In the case of `Cn1c(=O)c2c(nc(NCCCN3CCOCC3)n2Cc2ccc(Cl)cc2Cl)n(C)c1=O`, the Potency was inactive: > 76.9 µM. For `Cc1ccc(O)c(NC(=O)C2CC(c3c(F)cccc3Cl)=NO2)c1` (stereo unspecified) the value was inactive: > 76.9 µM; for `CC(=O)C1=C(C)Nc2ncnn2C1c1ccccc1OCc1ccccc1` (stereo unspecified), inactive: > 76.9 µM. For the compound `CCOC(=O)CN(Cc1ccccc1)S(=O)(=O)c1ccc(NC(C)=O)cc1`, the Potency was inactive: > 76.9 µM. As to `O=C(CSc1nc2ccccc2[nH]1)c1cccs1`, the Potency is inactive: > 76.9 µM.

For the compound `Cc1nnc(SCCc2ccccc2)[nH]c1=O`, the Potency is inactive: > 76.9 µM. Turning to `CCN(CC)CCCNC(=O)C1CCC(=O)N(c2ccc(OC)cc2)C1c1ccc(F)cc1` (stereo unspecified), the Potency was inactive: > 76.9 µM. Next, `O=C(Cn1nnc(-c2ccc3c(c2)OCO3)n1)NCc1ccco1`: inactive: > 76.9 µM; `O=C(CCNc1ccc(F)cc1)c1ccco1`: inactive: > 76.9 µM; `COc1ccc(S(=O)(=O)NCc2ccc(C(=O)N3CCN(c4ccccn4)CC3)cc2)cc1`: inactive: > 76.9 µM. Take `COC(=O)c1c(NC(=O)c2ccoc2C)sc2c1CCC2`: the Potency is inactive: > 76.9 µM. For `CCN1CC2=C(OC(N)=C(C#N)C2c2cccs2)/C(=C/c2cccs2)C1` (stereo unspecified) the value was “inactive”. For `COc1ccc(-c2nnc(-c3ccc(N)cc3)o2)cc1` the value was inactive: > 76.9 µM; for `CCc1ccc2[nH]c(=O)c(CN(CCN(CC)CC)C(=O)NC3CCCCC3)cc2c1`, inactive: > 76.9 µM.

Consider `CCC(Sc1nc2n[nH]c(C)c2c(=N)n1-c1ccc(C)c(Cl)c1)C(=O)N1CCOCC1` (stereo unspecified), for which the Potency was inactive: > 76.9 µM.

Turning to `COc1ccc(C(CNC(=O)c2cc(=O)[nH]c3ccccc23)N2CCCC2)cc1` (stereo unspecified), the Potency is inactive: > 76.9 µM. Take `Cc1csc(N2CCc3ccccc32)n1`: the Potency was inactive: > 76.9 µM.

In the case of `O=C1c2oc3ccccc3c(=O)c2C(c2ccc(Cl)cc2)N1c1ncccn1` (stereo unspecified), the Potency is inactive: > 76.9 µM. For the compound `COc1ccc(C(=O)NCCNC(C)=O)cc1S(=O)(=O)NCc1ccc(Cl)cc1`, the Potency is inactive: > 76.9 µM.

For `CCOCCn1c(CN2CCC(Cc3ccccc3)CC2)nc2c1c(=O)n(C)c(=O)n2C`, the Potency is inactive: > 76.9 µM. Turning to `Cc1ccc(N(CC(=O)Nc2ccc(C)cn2)S(=O)(=O)c2c(C)nn(C)c2C)cc1`, the Potency is inactive: > 76.9 µM. `CCOC(=O)N1CCN(S(=O)(=O)c2cc3c(cc2C)NC(=O)CO3)CC1`: the Potency is inactive: > 76.9 µM. For `CCN(CC)S(=O)(=O)c1ccc2oc(C(=O)Nc3ccc(OC)cc3OC)c(C)c2c1` the value was inactive: > 76.9 µM. For `Cc1cc(N2CCN(C(=O)c3ccco3)CC2)n2nc(-c3cccc(Cl)c3)cc2n1` the value was inactive: > 76.9 µM.

In the case of `CCCN(c1ccc(C(C)C)cc1)S(=O)(=O)c1c(C)[nH]c(=O)[nH]c1=O`, the Potency was inactive: > 76.9 µM.

Consider `Cc1ccc(C)c(OCC(=O)Nc2ccc3c(c2)OCO3)c1C`, for which the Potency was inactive: > 76.9 µM. Take `O=C(NC1CCCC1)C1CCCN(S(=O)(=O)c2ccc(-n3cnnn3)cc2)C1` (stereo unspecified): the Potency was inactive: > 76.9 µM. `Cc1cc(NC(=O)CSc2nc3ccccc3c(=O)n2C2CCCC2)no1`: the Potency is inactive: > 76.9 µM. As to `O=C(C1CCN(S(=O)(=O)N2CCC3(CC2)OCCO3)CC1)N1CCc2ccccc2C1`, the Potency is inactive: > 76.9 µM.

For `COC(=O)/C=c1\sc2ncnn2c1=O`, the Potency was inactive: > 76.9 µM. As to `O=C(CCCn1c(SCC(=O)c2ccc(Cl)cc2)nc2ccccc2c1=O)NCc1ccco1`, the Potency was inactive: > 76.9 µM. On to `Cc1cc(Cl)ccc1OCC(=O)Nc1ccccc1CO`, for which the Potency is inactive: > 76.9 µM.

As for `O=C1CC(c2ccccc2)CC(O)=C1C=NCCCN1CCOCC1` (stereo unspecified), the Potency is inactive: > 76.9 µM.

Turning to `COc1cc2nc(=S)n3[nH]c(CCn4c(C)nc5ccccc54)nc3c2cc1OC`, the Potency is inactive: > 76.9 µM. Turning to `COc1ccc(N(CC(=O)NCC2CCCO2)S(=O)(=O)c2c(C)noc2C)cc1` (stereo unspecified), the Potency was inactive: > 76.9 µM. Turning to `C=CCn1c(Cc2csc(N)n2)nnc1SCC(=O)Nc1ccc(C(=O)OCC)cc1`, the Potency was inactive: > 76.9 µM.

Consider `COc1ccc(-c2noc(CN(C(=O)C(C)(C)C)C(C)C)n2)cc1`, for which the Potency is inactive: > 76.9 µM. Next, `CCOC(=O)C1CCN(C(=O)c2oc3ccc(S(=O)(=O)N4CC(C)CC(C)C4)cc3c2C)CC1` (stereo unspecified): inactive: > 76.9 µM. For the compound `COC(=O)c1c(N)n(-c2cc(OC)cc(OC)c2)c2nc3ccccc3nc12`, the Potency is inactive: > 76.9 µM.

As for `CCC(CC)COC(=O)C(C#N)c1nc2ccccc2nc1N1CCOCC1` (stereo unspecified), the Potency was inactive: > 76.9 µM. For `CCc1cccc(NC(=O)CN(C)S(=O)(=O)c2cnc[nH]2)c1`, the Potency is inactive: > 76.9 µM. Next, `CN(CC(=O)Nc1ccc(F)c(Cl)c1)S(=O)(=O)c1cccc2nsnc12`: inactive: > 76.9 µM; `N#Cc1cnn(Cc2ccc(Cl)cc2)c1N`: inactive: > 76.9 µM.

Turning to `CC(=O)c1c(C)[nH]c(C(=O)N2CCc3ccccc32)c1C`, the Potency was inactive: > 76.9 µM. Next, `O=c1[nH]cnc2c1N1CCC2CC1`: inactive: > 76.9 µM; `COc1cc(NC(=O)CSc2nc(C)cs2)cc(OC)c1`: inactive: > 76.9 µM.

For the compound `CCOC(=O)C1=C(C)NC(=O)NC1c1cc(Br)c(O)c(OC)c1` (stereo unspecified), the Potency is inactive: > 76.9 µM. In the case of `Cc1ccc(C)c(N2CCN(C(=O)CN3C(=O)c4ccccc4C3=O)CC2)c1`, the Potency was inactive: > 76.9 µM. In the case of `CC1=C(C(=O)OC(C)C)C(C)C(C(=O)OC(C)C)=C(C)N1`, the Potency entry is “inactive”.

Regarding `COC(=O)c1ccc(NC(=O)CCn2c(=O)oc3ccccc32)cc1`, the Potency was inactive: > 76.9 µM. With `COc1cccc(C2/C(=C(/O)c3ccncc3)C(=O)C(=O)N2CCCN(C)C)c1` (stereo unspecified), the Potency was inactive: > 76.9 µM. As to `CCOC(=O)c1sc(=NC(=O)c2cc(OC)c(OC)c(OC)c2)n(C)c1C`, the Potency is inactive: > 76.9 µM. Next, `O=C(NCC1CCCO1)c1cccc(N2CCCC2=O)c1` (stereo unspecified): inactive: > 76.9 µM; `CCn1c(SCC(=O)Nc2ccc(OC)c(OC)c2)nnc1-c1cccs1`: inactive: > 76.9 µM.

Consider `COc1ccccc1OCCC(=O)OCCN1C(=O)c2ccccc2C1=O`, for which the Potency is inactive: > 76.9 µM.

The values are drawn from PubChem BioAssay AID360 (National Center for Advancing Translational Sciences (NCATS), 2006).
